System: CD8+ T cells from BVDV-immunized steers
Experiment: Ex vivo IFN-γ ELISPOT screening of predicted peptides
Conditions: 2.5 μg/ml peptide; for Level of IFN-γ+CD8+ T cell responses (in words): BVDV-immunized steers, SFC per million CD8+ T cells
Description: Anti-bovine CD8a mAb [7C2B clone, IgG2a isotype; WSU Monoclonal Antibody Center (WSUMAC), Item #BOV2019] and goat anti-mouse IgG microbeads (Miltenyi Biotec, Cat #130-048-402) were used for isolation of CD8+ T cells from splenocytes. Similarly, anti-bovine CD14 mAb (MM61A clone, IgG1 isotype; WSUMAC, Item #BOV2109), along with goat anti-mouse IgG microbeads, was used for the isolation of CD14+ monocytes from autologous PBMCs. The purity of the isolated subsets were determined to be 95-98% by flow cytometry (data not shown). Purified cell subsets were re-suspended in complete RPMI 1640 medium at appropriate dilution for IFN-γ ELISPOT assay.
IFN-γ responses in purified CD8+ T cells from the BVDV-immunized steers were evaluated by ELISPOT assay (Bovine IFN-γ ELISpot BASIC ALP kit, Mabtech, Cat #3119-2A) as in accordance with vendor's protocol and as previously described. Briefly, for all eight steers, 0.2×10^6 CD8+ T cells were co-cultured with 0.4×10^5 autologous CD14+ monocytes that were pulsed with 2.5 μg/ml of gamma-irradiated BVDV-1b TGAC or BVDV-2a A125 in a total volume of 100 μl complete RPMI 1640 medium in triplicate wells of MultiScreen-IP plates (MilliporeSigma™, Cat #MAIPS4510). Similar co-cultures incubated with 2.5 μg/ml of ConA or the medium alone served as positive and negative controls, respectively. The plates were incubated at 37° C. for 48 h and following processing, IFN-γ spots were enumerated using ELISPOT reader [ImmunoSpot® S6 Analyzer, Cellular Technology Limited]. The responses were reported as spot forming cells (SFC) per million CD8+ T cells after the background spot counts from negative control triplicates were deducted.
To screen the two-hundred predicted peptides, twenty pools of 10 peptides were generated and each peptide was diluted to a final concentration of 2.5 μg/ml in complete RPMI 1640 medium (Table 1). The peptide pools were tested for non-specific IFN-γ responses using PBMCs collected from naïve steers and no background responses were detected (data not shown). […] Additionally, a pool of previously defined BVDV CD4+ T cell epitope peptides (2.5 μg/ml of each peptide) was used as negative control. Peptide pools 4-7, 9, 10, and 18, stimulated IFN-γ+CD8+ T cells in the three steers and thus, individual peptides were tested to identify T cell epitopes.

[1] = all eight BVDV-immunized steers (TGAC and A125 groups together)
[2] = A125-immunized steers (n=4), splenic CD8+ T cells with autologous CD14+ monocytes
[3] = TGAC-immunized steers (n=4), splenic CD8+ T cells with autologous CD14+ monocytes

Sequence	Steers with peptide-specific IFN-γ+CD8+ T cell responses [1]	Steers with peptide-specific IFN-γ+CD8+ T cell responses [2]	Steers with peptide-specific IFN-γ+CD8+ T cell responses [3]	Level of IFN-γ+CD8+ T cell responses (in words)
ALFEAVQTI [Peptide 99]	all vaccinees except for one TGAC vaccinee	–	–	–
KSKTWFGAY [Peptide 88]	most of the TGAC and A125 vaccinees	–	–	–
KTARNINLY [Peptide 81]	the majority of BVDV-immunized steers	–	–	–
SEQKRTLLM [Peptide 37]	all vaccinees	–	–	–
YETATVLVF [Peptide 34]	All BVDV-immunized steers	–	–	–
ISSKWQMVY [Peptide 82]	–	4/4	4/4	–
REHNKWILK [Peptide 38]	most of the BVDV-immunized steers	–	–	high numbers of IFN-γ+CD8+ T cells
GPVYHRAPL [Peptide 61]	–	–	–	higher mean IFN-γ+CD8+ T cells in TGAC and A125 vaccinees than Npro106-114
KGYNSGYYY [Peptide 87]	–	4/4	4/4	–
YYDDNLNEI [Peptide 64]	the majority of BVDV-immunized steers	–	–	–
VMSRVIAAL [Peptide 69]	–	3/4	3/4	–
FGAYAASPY [Peptide 86]	most of the TGAC and A125 vaccinees	4/4	4/4	–
SEVLLLSVV [Peptide 32]	All BVDV-immunized steers	–	–	–
GSVWNLGKY [Peptide 56]	All BVDV-immunized steers	–	–	–
YAASPYCEV [Peptide 47]	most of the TGAC and A125 vaccinees	–	–	–
FEEASMCEI [Peptide 45]	all vaccinees	–	–	–
AMAVLTLTL [Peptide 39]	–	4/4	3/4	–
IEFCSHTPV [Peptide 173]	most of the BVDV-immunized steers	–	–	high numbers of IFN-γ+CD8+ T cells
ALSKRHVPM [Peptide 177]	–	3/4	4/4	–
WADFLTLIL [Peptide 97]	–	4/4	4/4	–
RYYETAIPK [Peptide 89]	most of the BVDV-immunized steers	–	–	high numbers of IFN-γ+CD8+ T cells
FVNEDIGTI [Peptide 65]	the majority of BVDV-immunized steers	–	–	–
ALRDFNPEL [Peptide 40]	–	4/4	4/4	–
SVMLGVGAI [Peptide 63]	all vaccinees	–	–	–
IMFEAFELL [Peptide 43]	all vaccinees	–	–	–
LMNKTQANL [Peptide 176]	most of the TGAC and A125 vaccinees	4/4	4/4	highest number of IFN-γ+CD8+ T cells
MEILSQNPV [Peptide 172]	all vaccinees	–	–	–
YFEPRDNYF [Peptide 100]	–	4/4	4/4	very high levels
